Over roughly 33,000 sequences, “E-score (-0.5 to 0.5)” has its median near -0.012; the highest 2% begin near 0.27. This is one part of the list.
What follows are sequences tested against T1, Vhr1 (UniProt P40522) (assay: PBM E-score (8-mer binding enrichment) (E-score (-0.5 to 0.5)); higher = stronger / more preferred TF binding; most listed sequences are background and not binding sites). Settings: protein concentration: 200 nM; construct: GST-full length.
T1 sequence: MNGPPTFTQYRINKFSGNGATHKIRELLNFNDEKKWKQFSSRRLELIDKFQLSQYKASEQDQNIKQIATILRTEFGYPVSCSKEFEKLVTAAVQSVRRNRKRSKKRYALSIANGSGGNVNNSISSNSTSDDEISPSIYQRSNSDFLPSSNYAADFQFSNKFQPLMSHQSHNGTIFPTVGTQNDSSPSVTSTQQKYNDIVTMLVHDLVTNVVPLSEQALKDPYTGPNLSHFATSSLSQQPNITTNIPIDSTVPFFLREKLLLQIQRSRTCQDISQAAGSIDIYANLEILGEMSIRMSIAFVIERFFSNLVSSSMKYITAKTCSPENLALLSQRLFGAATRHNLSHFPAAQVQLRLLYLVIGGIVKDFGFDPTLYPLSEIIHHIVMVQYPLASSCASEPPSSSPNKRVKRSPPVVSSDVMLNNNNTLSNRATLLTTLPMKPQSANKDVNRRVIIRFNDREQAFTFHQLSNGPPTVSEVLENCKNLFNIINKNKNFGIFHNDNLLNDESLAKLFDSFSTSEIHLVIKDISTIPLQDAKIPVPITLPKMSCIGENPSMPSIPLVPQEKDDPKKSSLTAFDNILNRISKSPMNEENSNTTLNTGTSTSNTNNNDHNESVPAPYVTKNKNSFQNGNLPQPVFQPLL
Procedure, shortened: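 Bound GST-tagged yeast transcription factors, applied at about 100-200 nM to double-stranded universal all-10-mer Agilent arrays, were detected with fluorescent anti-GST. Scans were normalised with masliner. A modified Wilcoxon-Mann-Whitney statistic, the E-score, was assigned to each ungapped eight-base word pooled with its reverse complement by the Universal PBM Analysis Suite.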
GCAATTAA was tested, and the “PBM E-score” value was -0.0295.
With AAGGAGAG the “PBM E-score” value was -0.332.
For AATCTCGC, the “PBM E-score” value was 0.0379.
In the case of AAGCACAA, the “PBM E-score” value is reported as -0.0279.
With CAGCATTA the “PBM E-score” value was -0.0718.
For CTAGCCAG, the “PBM E-score” value was -0.0891.
In the case of GGCTATAC, the “PBM E-score” value is reported as -0.0266.
In the case of AACTTTTG, the “PBM E-score” value is reported as -0.205.
In the case of ACCTAACT, the “PBM E-score” value is reported as 0.029.
GAATCCGA was tested, and the “PBM E-score” value was 0.135.
For GATGTGGA, the “PBM E-score” value was 0.107.
AGGTGAAC was tested, and the “PBM E-score” value was 0.00026.
With CTTCGTAC the “PBM E-score” value was -0.0414.
For CCTCAACG, the “PBM E-score” value was -0.37.
GACCCCCA was tested, and the “PBM E-score” value was -0.215.
With ATCATTCC the “PBM E-score” value was 0.105.
CTACAAAC was tested, and the “PBM E-score” value was 0.00725.
For ATCCACTC, the “PBM E-score” value was 0.226.
With TCGAGCCA the “PBM E-score” value was -0.0584.
ACCTTTTG was tested, and the “PBM E-score” value was -0.322.
In the case of CTCCAGTC, the “PBM E-score” value is reported as 0.126.
AGTGAGGG was tested, and the “PBM E-score” value was -0.0525.
With CGGAAACG the “PBM E-score” value was -0.113.
ACGGCATA was tested, and the “PBM E-score” value was 0.0852.
In the case of AAGGACTC, the “PBM E-score” value is reported as 0.137.
For AAACGTAG, the “PBM E-score” value was -0.0369.
With AACAGTTG the “PBM E-score” value was 0.0433.
In the case of ATTAGCGC, the “PBM E-score” value is reported as 0.0558.
In the case of ACCCGCCT, the “PBM E-score” value is reported as 0.0943.
TAGGGCCA was tested, and the “PBM E-score” value was -0.246.
In the case of AAAAGTTG, the “PBM E-score” value is reported as -0.228.
With TAGGCTGA the “PBM E-score” value was 0.0199.
CGCCAATC was tested, and the “PBM E-score” value was 0.139.
In the case of ACCGTCAG, the “PBM E-score” value is reported as -0.0753.
With CAAACTCA the “PBM E-score” value was 0.0842.
With CGCAGGAC the “PBM E-score” value was 0.113.
With CATATATG the “PBM E-score” value was 0.00539.
CGAGGGGC was tested, and the “PBM E-score” value was 0.00685.
With CCCACTCG the “PBM E-score” value was 0.0331.
With ATTAGTTC the “PBM E-score” value was -0.0612.
For ACCTTTCC, the “PBM E-score” value was -0.242.
TAGAGTCA was tested, and the “PBM E-score” value was 0.355.
With ATGCTCCC the “PBM E-score” value was -0.097.
With GTTTTCCA the “PBM E-score” value was -0.0683.
With ATCGGACG the “PBM E-score” value was -0.114.
GGTGAAGA was tested, and the “PBM E-score” value was -0.0479.
ACTAGCGG was tested, and the “PBM E-score” value was -0.0437.
With CAAGGAAA the “PBM E-score” value was -0.118.
With ATACAGCA the “PBM E-score” value was 0.0905.
TACTTGGA was tested, and the “PBM E-score” value was -0.0572.
For GTGACGGA, the “PBM E-score” value was 0.0152.
In the case of CAGCCGGG, the “PBM E-score” value is reported as 0.185.
TATGTTAA was tested, and the “PBM E-score” value was -0.188.
In the case of GGCCCTGA, the “PBM E-score” value is reported as -0.0309.
For CGCGACTA, the “PBM E-score” value was 0.391.
In the case of AAAAGACT, the “PBM E-score” value is reported as -0.102.
AATGTCAT was tested, and the “PBM E-score” value was -0.0728.
For GACGAGAC, the “PBM E-score” value was -0.0155.
In the case of CGCTCTAA, the “PBM E-score” value is reported as -0.0477.
In the case of CGCTTGAC, the “PBM E-score” value is reported as 0.00631.
CGTATTAC was tested, and the “PBM E-score” value was 0.186.
GACCCTAA was tested, and the “PBM E-score” value was -0.109.
For GAGTTTAA, the “PBM E-score” value was 0.0259.
In the case of ATTCAGGG, the “PBM E-score” value is reported as 0.108.
For CGCATTGA, the “PBM E-score” value was 0.0883.
With CGGATGAC the “PBM E-score” value was 0.175.
With CTCTGAAC the “PBM E-score” value was -0.204.
CCGAACAA was tested, and the “PBM E-score” value was -0.138.
In the case of AAGGTTGA, the “PBM E-score” value is reported as -0.0768.
For CTCAGCAG, the “PBM E-score” value was 0.168.
With CGTTCACA the “PBM E-score” value was -0.0335.
CACCAGGA was tested, and the “PBM E-score” value was 0.157.
TACGGTGA was tested, and the “PBM E-score” value was 0.179.
GCCAGGGC was tested, and the “PBM E-score” value was -0.0494.
For CTCTGCCC, the “PBM E-score” value was -0.013.
For AAGGACTA, the “PBM E-score” value was -0.0314.
In the case of AGCGGGCC, the “PBM E-score” value is reported as -0.125.
With CGCCCTCC the “PBM E-score” value was -0.137.
With ACTTCTTC the “PBM E-score” value was -0.00857.
With TCAGAAAA the “PBM E-score” value was -0.284.
CCCCTCTA was tested, and the “PBM E-score” value was -0.106.
In the case of CCTGCTGA, the “PBM E-score” value is reported as 0.268.
For AAGGTCAC, the “PBM E-score” value was -0.0131.
AACTACAG was tested, and the “PBM E-score” value was -0.041.
For GAGCAAGC, the “PBM E-score” value was -0.0213.
AGGGGGAA was tested, and the “PBM E-score” value was -0.143.
In the case of AATCTAGT, the “PBM E-score” value is reported as -0.021.
In the case of CGCCTCTC, the “PBM E-score” value is reported as -0.251.
With GAATGCTC the “PBM E-score” value was -0.037.
For CAGGCTGA, the “PBM E-score” value was 0.192.
CCACCAAC was tested, and the “PBM E-score” value was 0.18.
With TAAAGACA the “PBM E-score” value was -0.192.
In the case of ACCGGCGT, the “PBM E-score” value is reported as 0.046.
In the case of TCGCTACA, the “PBM E-score” value is reported as -0.0943.
